Measured values published in the RNAGym collection of RNA variant scans (doi:10.1101/gad.245936.114).
Variants at the background level are over-represented here.

B1: tRNA (parent)
chain: CUCUCGGUAGCCAAGUUGGUUUAAGGCGCAAGACUUUAAUUUAUCACUACGAAAUCUUGAGAUCGGGCGUUCGACUCGCCCCCGGGAGAUUUUUUCCUCGAGCAA

Variants of: B1
Experiment: nonsense suppression (GFP-seq) (ratio to wild type); higher = more function; SUP4oc tRNA, yeast GFP reporter sort-seq
Method in brief: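 Raffinose/galactose medium with 80 mg/L adenine was used to grow yeast carrying genome-integrated tRNA variants (~3% random-mutation library), RFP, and a galactose-driven GFP ochre reporter. Cells went into GFP/RFP bins, which were Illumina-sequenced, and variants with ≥100 reads and ≥30 cells were scored. Nonsense suppression (GFPSEQ) is the per-bin median GFP/RFP weighted by estimated cell share and expressed relative to the unmutated parent tRNA.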

Variant	nonsense suppression
CUCUCGGUAGCCAAGUUGGUUUAAGGCGCAAGACUUUAAUUUAUCACUACGAAAUCUUGAGAUCGGGCCUUCGACUCGCCCCCGGGAGGUUUUUUCCUCGAGCAA [G69C A89G]	≤ 0.026
CUCUCGGUAGCCAAGUUGGUUUAAGGCGCAAGACUUUAAUUUAUCACUACGAAAUCUUGAGAUCGGGAGUUCGACUAGCCCCCGGGAGAUUUUUUCCUCGAGCAA [C68A C77A]	≤ 0.026
CUCUCGGUAGCCAAGUUGGUUUAAGGCGCAAGACUUUAAUUUAUCACUACGAAAUCUUGAGAUCGGUCGUUCGACUCGCCCCCGGGACAUUUUUUCCUCGAGCAA [G67U G88C]	≤ 0.026
CUCUCGGUAGCCAAGUUGGUUUAAGGCGCAAGACUUUAAUUUAUCACUACGAAAUCUUGAGAUCGGUCGUUCGACUCGCCCCCGGGAAAUUUUUUCCUCGAGCAA [G67U G88A]	≤ 0.026
CUCUCGGUAGCCAAGUUGGUUUAAGGCGCAAGACUUUAAUUUAUCACUACGAAAUCUUGAGAUCGGUCGUUCGACUCGCCCCCGGGAUAUUUUUUCCUCGAGCAA [G67U G88U]	≤ 0.026
CUCUCGGUAGCCAAGUUGGUUUAAGGCGCAAGACUUUAAUUUAUCACUACGAAAUCUUGAGAUCGGUCGUUCGACUCGCCCCCGGGAGAUUUUUUCCUCGAGCAA [G67U]	≤ 0.026
CUCUCGGUAGCCAAGUUGGUUUAAGGCGCAAGACUUUAAUUUAUCACUACGAAAUCUUGAGAUCGGGCAUUCGACUCGCCGCCGGGAGAUUUUUUCCUCGAGCAA [G69A C81G]	≤ 0.026
CUCUCGGUAGCCAAGUUGGUUUAAGGCGCAAGACUUUAAUUUAUCACUACGAAAUCUUGAGAUCGGGAGUUCGACUCGCCCCCAGGAGAUUUUUUCCUCGAGCAA [C68A G84A]	≤ 0.026
CUCUCGGUAGCCAAGUUGGUUUAAGGCGCAAGACUUUAAUUUAUCACUACGAAAUCUUGAGAUCGGGCCUUCGAGUCGCCCCCGGGAGAUUUUUUCCUCGAGCAA [G69C C75G]	≤ 0.026
CUCUCGGUAGCCAAGUUGGUUUAAGGCGCAAGACUUUAAUUUAUCACUACGAAAUCUUGAGAUCGGGAGUCCGACUCGACCCCGGGAGAUUUUUUCCUCGAGCAA [C68A U71C C79A]	≤ 0.026
CUCUCGGUAGCCAAGUUGGUUUAAGGCGCAAGACUUUAAUUUAUCACUACGAAAUCUUGAGAUCGGGCAUUCGACUCGCCCCCGGGUGAUUUUUUCCUCGAGCAA [G69A A87U]	≤ 0.026
CUCUCGGUAGCCAAGUUGGUUUAAGGCGCAAGACUUUAAUUUAUCACUACGAAAUCUUGAGAUCGGGAUUUCGACACGCCGCCGGGAGAUUUUUUCCUCGAGCAA [C68A G69U U76A C81G]	≤ 0.026
CUCUCGGUAGCCAAGUUGGUUUAAGGCGCAAGACUUUAAUUUAUCACUACGAAAUCUUGAGAUCGGGGGUGCGACUCGCCCCCAGGAGAUUUUUUCCUCGAGCAA [C68G U71G G84A]	≤ 0.026
CUCUCGGUAGCCAAGUUGGUUUAAGGCGCAAGACUUUAAUUUAUCACUACGAAAUCUUGAGAUCGGGACUGCGACUCGCCCCCGAGAGAUUUUUUCCUCGAGCAA [C68A G69C U71G G85A]	≤ 0.026
CUCUCGGUAGCCAAGUUGGUUUAAGGCGCAAGACUUUAAUUUAUCACUACGAAAUCUUGAGAUCGGGCAUUCGACUCGCUCCCGGGAGAUUUUUUCCUCGAGCAA [G69A C80U]	≤ 0.026
CUCUCGGUAGCCAAGUUGGUUUAAGGCGCAAGACUUUAAUUUAUCACUACGAAAUCUUGAGAUCGGGCCUUCGACUCGCCCCCGGGUGAUUUUUUCCUCGAGCAA [G69C A87U]	≤ 0.026
CUCUCGGUAGCCAAGUUGGUUUAAGGCGCAAGACUUUAAUUUAUCACUACGAAAUCUUGAGAUCGGUCGUUCGACUCGCCCCCCGGAGAUUUUUUCCUCGAGCAA [G67U G84C]	≤ 0.026
CUCUCGGUAGCCAAGUUGGUUUAAGGCGCAAGACUUUAAUUUAUCACUACGAAAUCUUGAGAUCGGGGGUUCGACUCGCCCCAGGGAGAUUUUUUCCUCGAGCAA [C68G C83A]	≤ 0.026
CUCUCGGUAGCCAAGUUGGUUUAAGGCGCAAGACUUUAAUUUAUCACUACGAAAUCUUGAGAUCGGGUGAUCGACUCGCCCCCGGGAGAUUUUUUCCUCGAGCAA [C68U U70A]	≤ 0.026
CUCUCGGUAGCCAAGUUGGUUUAAGGCGCAAGACUUUAAUUUAUCACUACGAAAUCUUGAGAUCGGGUGUUCGACUCGCCCCCGGGAGAUUUUUUCCUCGAGCAA [C68U]	1.05
CUCUCGGUAGCCAAGUUGGUUUAAGGCGCAAGACUUUAAUUUAUCACUACGAAAUCUUGAGAUCGGGGGUUCGACUCGCCCCCGGGAGAUUUUUUCCUCGAGCAA [C68G]	≤ 0.026
CUCUCGGUAGCCAAGUUGGUUUAAGGCGCAAGACUUUAAUUUAUCACUACGAAAUCUUGAGAUCGGGAGUUCGACUCGCCCCCGGGAGAUUUUUUCCUCGAGCAA [C68A]	≤ 0.026
CUCUCGGUAGCCAAGUUGGUUUAAGGCGCAAGACUUUAAUUUAUCACUACGAAAUCUUGAGAUCGGGAGUGCGACUCGCCCCCGGGAGAUUUUUUCCUCGAGCAA [C68A U71G]	≤ 0.026
CUCUCGGUAGCCAAGUUGGUUUAAGGCGCAAGACUUUAAUUUAUCACUACGAAAUCUUGAGAUCGGGGGUUCGACUCGCCCCCGGGACAUUUUUUCCUCGAGCAA [C68G G88C]	≤ 0.026
CUCUCGGUAGCCAAGUUGGUUUAAGGCGCAAGACUUUAAUUUAUCACUACGAAAUCUUGAGAUCGGGGGUUCGACUCGCCCCCGGGAAAUUUUUUCCUCGAGCAA [C68G G88A]	≤ 0.026
CUCUCGGUAGCCAAGUUGGUUUAAGGCGCAAGACUUUAAUUUAUCACUACGAAAUCUUGAGAUCGGUCGUUCGACUCGCCCCCGGCAGAUUUUUUCCUCGAGCAA [G67U G86C]	≤ 0.026
CUCUCGGUAGCCAAGUUGGUUUAAGGCGCAAGACUUUAAUUUAUCACUACGAAAUCUUGAGAUCGGGCCUUCGUCUCGCCCCCGGGUGAUUUUUUCCUCGAGCAA [G69C A74U A87U]	≤ 0.026
